This is an account of results in ChEMBL document CHEMBL4888484, “Replenishing the malaria drug discovery pipeline: Screening and hit evaluation of the MMV Hit Generation Library 1 (HGL1) against asexual blood stage Plasmodium falciparum ,using a nano luciferase reporter read-out” (2022).

About 540 (0.36%) of roughly 150,000 compounds showed an effect of 50% or more. The list shows a part of the results.

The assay relates to Plasmodium falciparum. Description: Primary screen in NF54 nanoGlo assay, in single point, at 2uM, 72h; a lower Z score goes with more inhibition. Type of assay: functional, Erythrocyte. As to conditions: timepoint 72 hour.
As to `Cc1occc1C(=O)NCCCn1ncc2c(Cl)cccc21`, the “% Inhibition” value came to 0% and the Z score was -0.05.

As for `Cc1ccc(OCCCN(C)C(=O)CCn2cncn2)cc1C`, the “% Inhibition” value is 4% and the Z score is on record as -0.76.

In the case of `CC[C@@H](C(=O)NCc1ccc(F)cc1)N(c1ccc(Cl)cc1)c1nc(-c2ccc(F)cc2)cs1`, the “% Inhibition” value was -11% and the Z score is reported as 1.24.

On to `c1cc(-c2noc(-c3ccoc3)n2)c2nccn2c1`, for which the “% Inhibition” value amounted to 33% and the Z score was -3.71.

Take `CCC(CC)(CO)CN(C)Cc1cccc(F)c1C(F)(F)F`: the “% Inhibition” value is on record as -1% and the Z score stood at 0.14.

As for `CCOCc1nc(C)cc(-n2ccnc2)n1`, the “% Inhibition” value is -10% and the Z score is 1.95.

For the compound `CC[C@H](NC(=O)c1occc1C(C)C)C1CCOCC1`, the “% Inhibition” value is -15% and the Z score amounted to 2.66.

Consider `C[C@H](Oc1cc(Cl)cc(Cl)c1)C(=O)N1CCNC(=O)CC1`, for which the “% Inhibition” value is recorded as -8% and the Z score was 1.14.

For `CCc1oc(C(=O)O)cc1CN1CC[C@@](O)(Cc2ccc(F)cc2)C1`, the “% Inhibition” value is -8% and the Z score is reported as 1.14.

With `CC(C)CCOC1CCN(C(=O)C2CC(=O)N(C)C2)C1` (centres undefined), the “% Inhibition” value is recorded as 0% and the Z score was -0.01.

Turning to `N[C@@H](CNc1ncc(Br)cc1Cl)C1CC1`, the “% Inhibition” value is listed as 4% and the Z score is -0.61.

With `CC(NC(=O)c1cc2ccccc2cc1O)C1CCCOC1` (centres undefined), the “% Inhibition” value is on record as -2% and the Z score is reported as 0.22.

With `COc1cccc(S(=O)(=O)N2CCN(Cc3nc(-c4cccc(Cl)c4)oc3C)CC2)c1`, the “% Inhibition” value was -6% and the Z score is 0.83.

Regarding `O=C(N[C@H]1CC(=O)N(c2ccc3c(c2)OCCO3)C1)C1CCCC1`, the “% Inhibition” value was -13% and the Z score is reported as 2.38.

With `COc1c(Cl)cc(NC(=O)N[C@@]2(C)CCOC2)cc1Cl`, the “% Inhibition” value was 0% and the Z score came out at 0.

Regarding `O=C(N[C@@]1(C(F)(F)F)N=C(c2ccccc2)N(C2CCCCC2)C1=O)C1CCCCC1`, the “% Inhibition” value is -4% and the Z score is given as 0.46.

Turning to `CCN1CC(CN(C)C(=O)[C@@H]2CCCN2C(C)=O)Oc2ccccc21` (some centres undefined), the “% Inhibition” value was found to be 1% and the Z score is listed as -0.17.

Consider `CN1CC2(CCN(C(=O)c3cnc[nH]c3=O)CC2)C[C@@H](c2ccccc2)C1=O`, for which the “% Inhibition” value is recorded as -8% and the Z score was 0.97.

As to `CC(C)(NC(=O)c1ccsc1)c1nc2c(c(C(N)=O)n1)OCCO2`, the “% Inhibition” value is on record as -4% and the Z score came to 0.58.

As for `Cc1noc(-c2c(C)[nH]c(C)c2S(=O)(=O)Nc2ccc(F)c(C)c2)n1`, the “% Inhibition” value is -12% and the Z score turned out to be 2.41.

For `O=C(NCCCN1CCCC1=O)c1ccc2nc(-c3ccc(F)cc3)c(-c3ccc(F)cc3)nc2c1`, the “% Inhibition” value is given as -14% and the Z score is reported as 1.61.

For the compound `C[C@H](NC(=O)N(C)[C@@H]1CCC[C@H]1O)c1ccc(F)cc1Cl`, the “% Inhibition” value was 5% and the Z score is -0.67.

With `CC1(C)CCCC[C@@H]1NCc1cn(C(C)(C)C)nn1`, the “% Inhibition” value was 12% and the Z score was -1.56.

With `Cc1cccc2cc(C(=O)N3C[C@H]4CC[C@@H](C3)N(CC3CCC3)C4=O)oc12`, the “% Inhibition” value is listed as -25% and the Z score worked out at 2.34.

In the case of `O=C(CNc1ccccc1Oc1ccccc1)N1CCN(c2ccccc2)CC1`, the “% Inhibition” value is on record as -10% and the Z score stood at 2.

As to `O=S(=O)(Cc1cc(F)ccc1Cl)NCCN1CCCC[C@@H]1CO`, the “% Inhibition” value amounted to 0% and the Z score was 0.05.

In the case of `CC(OCC(F)(F)F)C(=O)NC1CCS(=O)(=O)C1` (centres undefined), the “% Inhibition” value is reported as -8% and the Z score came to 1.57.

For `CC(=O)c1[nH]c(C)c(C(=O)N2CCC(O)(c3cccc(C(F)(F)F)c3)CC2)c1C`, the “% Inhibition” value is -15% and the Z score was 2.

Turning to `CCc1nn(C)c(CC)c1CN1CC[C@H](c2nccn2C)C1`, the “% Inhibition” value is reported as -2% and the Z score was 0.19.

For the compound `O=C(NCc1nnc2n1CCC2)N1CCOCC1CC(O)c1cccs1` (centres undefined), the “% Inhibition” value was -9% and the Z score was 0.97.

Turning to `CCOC(=O)[C@H](CNC(=O)CCC1CCCC1)Cc1ccccc1`, the “% Inhibition” value is -6% and the Z score amounted to 0.94.

Take `Cc1cccc(N2CCN(C(=O)CCc3nc(CS(=O)(=O)c4ccccc4)no3)C[C@@H]2C)c1`: the “% Inhibition” value worked out at 5% and the Z score is -0.93.

In the case of `Cc1cc(C(C)C(=O)NC2CCN(C)C2=O)c(C)o1` (centres undefined), the “% Inhibition” value is given as -11% and the Z score is listed as 1.91.

`COc1nc2c(cc1CN[C@@H](C)CO)C(=O)N(C1CCCC1)C2`: the “% Inhibition” value came to 1% and the Z score is -0.08.

For `O=C(Nc1ccc(Oc2ccc3ccccc3c2Cl)c(Cl)c1)c1cc(Cl)ccc1O`, the “% Inhibition” value was 28% and the Z score is reported as -3.13.

For `O=C1CCCc2nc3[nH]n(-c4ccccc4)c(=O)c3cc21`, the “% Inhibition” value is recorded as 32% and the Z score was -4.62.

Consider `CCOc1ccc(C2C(C(=O)N3CCN(c4ccccc4F)CC3)c3ccccc3C(=O)N2CCN2CCOCC2)cc1` (centres undefined), for which the “% Inhibition” value is reported as -13% and the Z score amounted to 1.96.

In the case of `CC1(N2CCOCC2)CCN(S(=O)(=O)c2cncc(C#N)c2)CC1`, the “% Inhibition” value worked out at 2% and the Z score is on record as -0.42.

Turning to `COc1cc(CNC(=O)c2cc(Cc3ccccc3)n[nH]2)ccc1C`, the “% Inhibition” value is 5% and the Z score is listed as -0.59.

For the compound `O=C(N[C@H]1CCN(c2ccc(C(F)(F)F)cn2)C[C@@H]1O)c1cnccn1`, the “% Inhibition” value was -16% and the Z score is recorded as 2.78.

For `CCn1cnc2c(N3CC(c4nc(-c5ccccc5)no4)C3)ncnc21`, the “% Inhibition” value is reported as 0% and the Z score is -0.01.

For `CCN1C[C@@H](C(=O)N2CCN(c3ccccc3OC)CC2)CC1=O`, the “% Inhibition” value is listed as -4% and the Z score came to 0.36.

In the case of `COc1ccc(NC(=O)C(=O)N[C@H](c2ccccc2OC)c2nccn2C)c(OC)c1`, the “% Inhibition” value was -15% and the Z score stood at 1.65.

Regarding `O=c1c2ccccc2nnn1C[C@H]1CC[C@H](C(=O)N2CCN(Cc3ccccc3)CC2)CC1`, the “% Inhibition” value is on record as -16% and the Z score was determined as 2.33.

On to `CC(C)Cc1cc(C(=O)N2CCN(C)C[C@@H]2c2ccccc2)nc(N)n1`, for which the “% Inhibition” value is -15% and the Z score is recorded as 1.66.

Consider `Nc1nc(COC(=O)[C@H]2CC(=O)N(Cc3ccccc3Cl)C2)nc(Nc2ccccc2)n1`, for which the “% Inhibition” value stood at 3% and the Z score was -0.42.

For `C[C@@H](CS(C)(=O)=O)N(C)C(=O)C1CC=CC1`, the “% Inhibition” value is 0% and the Z score was 0.04.

With `Cc1cc(OCCN2CCCCC2)nn1C`, the “% Inhibition” value is reported as -20% and the Z score is given as 2.09.

On to `C[C@H](NC(=O)N1CCn2cncc2C1)c1cnn(C)c1`, for which the “% Inhibition” value is given as -5% and the Z score turned out to be 0.84.

Consider `O=C(NCC1CCCO1)C1Cc2cc(C(F)(F)F)ccc2N2CCN(c3ccccc3)CC12` (centres undefined), for which the “% Inhibition” value was found to be 9% and the Z score is listed as -1.09.

`Cc1noc2nc(C3CC3)cc(C(=O)N3C(C(=O)O)CC4CCCCC43)c12` (centres undefined): the “% Inhibition” value is 3% and the Z score is -0.31.

For the compound `O=C(NCC[C@@H]1CCCC[C@@H]1O)c1ccnc(-n2cccn2)c1`, the “% Inhibition” value is -23% and the Z score is recorded as 3.1.

Broadly, the % Inhibition is the drop in the measured response relative to a control, in per cent.
